The values below come from the RNAGym collection of RNA variant scans (doi:10.7554/elife.90254).

Read counts are not given, so values of variants with three or more changes are uncertain.

Sequences and labels used below:
B1: LINE1-mini (parent)
chain: GGCAGAGCUCAACACAGCGUGGCAAAGUGGCUGUGGCUAGACUGCC

The series covers variants of B1. In words: self-cleavage, relative activity (ratio to wild type); higher = more cleavage; in vitro, sequencing; the parent is a self-cleaving ribozyme.
In the case of U9G A16C G17A A24C C45A, the self-cleavage was 0.02.
With G30U G44A C45U the figure was 0.12; with G5A G21U G36A A41U, 0.04; with A16G C31U G33U, 0.
In the case of U9G A14C G40U C42A, the self-cleavage stood at 0.
Consider C8G G19A G30C G40U, for which the self-cleavage was 0.05.
Take A12C G29U A41G: the self-cleavage is 0.02.
Take A12G C13G G19A G36U: the self-cleavage is 0.06.
With C8U U9G A16U G33A U38A, the self-cleavage was 0.07.
The figure for G19A U32G G36A U43A is 0.06.
With C15G G19C G27U C42A the figure was 0.03; with A4C C15A G21A G35A C37U A39U, 0.5.
With G1C C8G G17C A39G G40A, the self-cleavage was 0.
As to A6U G33A C46A, the self-cleavage is 0.03.
The figure for C10A G27U C45U is 0.77; for G1U A14G G35A it is 0.04.
In the case of A12G A39C C46G, the self-cleavage was found to be 0.02.
The figure for C15U A25C G40A is 0.03; for A11C A24C G44U C46A it is 0.04.
In the case of A6G C13U G22C C31A, the self-cleavage worked out at 0.08.
The figure for G1C G2U C18G C31A G36C is 0.03; for C10A A11U U28G C46A it is 0; for C23A A26C G27A G35A C37A it is 0.01.
For the variant G2A C18U A25G, the self-cleavage was 0.35.
Consider C3A A11C U20A, for which the self-cleavage came to 0.05.
With G7C U9G C15G C31U, the self-cleavage is 0.01.
The figure for A4U G5U C13U A25G C37U is 0.1.
Turning to G2U C3A G17C C31U, the self-cleavage was 0.1.
In the case of G5U C10U A12U C13G G21U, the self-cleavage was 0.03.
The figure for G1C C8A U9G A14U C18G A25U U32A is 0.
With A6G G27U U28C the figure was 0.11; with G1C A4U G29A U34A A41C, 0.03.
The figure for G2U G5A A24C is 0.04; for C3U C10G C23G C45G it is 0.01.
Take A16C U34G C37U: the self-cleavage came out at 0.25.
For G17U A25U G27U U38G, the self-cleavage came out at 0.18.
U9G A14G C37G: the self-cleavage stood at 0.08.
With A6C U9A A39C the figure was 0.08; with G2U C10U G17A G27A U28C G40A, 0.01; with G5C A6G C10G, 0.03.
The figure for G17U G27U A39U is 0.39; for C10A G29U G35C C37G it is 0.01.
The figure for C3U G35U C45A is 0.1.
Turning to G5A G7C C46U, the self-cleavage worked out at 0.05.
In the case of C13U G30U C31A, the self-cleavage was 0.09.
G2U A16G G19A A26U U32A C37U C45A: the self-cleavage is 0.
With U9G G22C G33U G36C the figure was 0.01; with C3G G35C G40C G44C, 0.02; with A16G C42G C46G, 0.04.
With G2C A6G A12U G27C U43A, the self-cleavage turned out to be 0.01.
A12G C18A A25U A41C: the self-cleavage turned out to be 0.01.
As for C31G G36C A41C, the self-cleavage amounted to 0.
The figure for G5C A11C G19C A25C is 0.02; for A25C A39U C46A it is 0.93.
The figure for U9C G27U G30C U32G A39G is 0.03.
C13A G22C G40U C46U: the self-cleavage was 0.
With U9A C13A G29U C45U the figure was 0.34; with A11G A14C C45A C46U, 0.03.
With G1C A12G G40U the figure was 0; with G22U A24U A39C, 0.16; with C8U G22A G33A U34C, 0.08.
The figure for A14G U20C G30U C42G is 0.03; for G5C A11G C15U C18A C23A it is 0.01; for G2U G5C U32G A39C it is 0.02.
For G2C C3G C23A, the self-cleavage amounted to 0.08.
Consider U9G G35A C37G U43C, for which the self-cleavage was determined as 0.04.
With U9G A26C C37A G40A the figure was 1.07; with A6C G22A G30C U38A, 0.25; with G22A G35U C46U, 0.19.
Consider G2A C10A G36U U38A C46U, for which the self-cleavage was 0.
With C8A U9G U28A U34A C42U the figure was 0.01.
As to C8A C10A C15G G35U C42U, the self-cleavage amounted to 0.02.
The figure for A16C A24G C42A C46A is 0.01; for C8G G35A C45U C46G it is 0.02; for C15G U28A G30U U34A A41U it is 0.
Consider G17A U28G G30A C37G, for which the self-cleavage was determined as 0.05.
The figure for A6G C10A G29U is 0.07; for C10A G19A U43A it is 0; for A11U A14U A25G it is 0.
Take A12U G17A C23A G30C: the self-cleavage stood at 0.
With C8A U38G C42A the figure was 0.01; with G1A U9C G21U, 0.12.
Take C10A A14U G19A C23U A41G C45U: the self-cleavage was 0.
With C3U U20A C31U G36C the figure was 0.03; with C3A A12G G29U G30A U38G, 0.03.
In the case of C3A A26G U28A U38C, the self-cleavage worked out at 0.01.
The figure for A11C A12G C15A is 0; for C8U C10A A11U A12U C31U it is 0.04.
The figure for C3A A24U A26C is 1.12; for A6U G36A C37U it is 0.05.
For C8U C13U G27C, the self-cleavage was determined as 0.14.
Regarding G2C G21U G35U G36C A39C C46U, the self-cleavage is 0.06.
The figure for G5C C8G A12G C37G U38G is 0.06; for U9C C23U G27C G30U it is 0.01.
With G21U G33U C37G the figure was 0.14; with U20G A24G G44U, 0.05; with G5U A6C A14C A16G G30C C31G G36U C42U, 0.02.
Regarding G2C G21C C42G, the self-cleavage came out at 0.01.
The figure for C3U C8G C13A is 0.03; for G19C U34G G40C it is 0.01; for G1A C23A C37U it is 0.03.
With G27A G35C U43C the figure was 0.03.
For G2C C8U A14U C45G, the self-cleavage turned out to be 0.13.
C10U C18U C42A: the self-cleavage was 0.04.
With C3U A4C G5C C8A U20A A26U the figure was 0.14; with C15A G30A U32G, 0.05.
The figure for A4G G21U G22U A26U A41C is 0.02.
For G1U G2A U9C G29A A41G, the self-cleavage was found to be 0.01.
Take C3G G29U U43C G44A: the self-cleavage stood at 0.08.
Regarding A16U G21A A25U C46A, the self-cleavage was 0.25.
The figure for G2U G21A U38A is 0.06; for G1U A12C A39C C42U it is 0.01; for A41U U43A G44U it is 0.15.
Consider C3A G19U U20A, for which the self-cleavage was determined as 0.13.
A6C U9G A11G C23A G44C: the self-cleavage was found to be 0.02.
As for G17C C18G G19A A24U U28C G29C G33A U34G G44C, the self-cleavage came to 0.
The figure for C15G U20C C45A is 0.03; for C31A G35C A41U it is 0.19; for C10G C15G U20A G21A it is 0.01.
The figure for U9A C10A G21U G36C is 0.04; for G7U A14U G17A C31A it is 0.47.
For G5A G29U C37A C45A, the self-cleavage came to 0.03.
The figure for G7A U32A C37U C42G is 0.06; for A11U C18U A24U it is 0.05; for C8A C13U A16U A24U C31G C42A it is 0.23.
With U20C C31U G44C the figure was 0.02.
As for G2U U20C A25U, the self-cleavage was determined as 0.04.
With G17A G19C A25G U32C the figure was 0.02; with G19C G27U G40U A41C C45U, 0.07; with A6C G19A G27C, 0.35.
For C3G G5U A25G G30C, the self-cleavage was found to be 0.53.
The figure for A6C G17U U20G A26U G27C G30U is 0.07.
Turning to G1U A6U C18G C31A G44A, the self-cleavage worked out at 0.03.
The figure for G2A A12U C18A G19U G35A C46A is 0.08; for C3A G7U C23U it is 0.41.
On to G2U A11U G35U C42A, for which the self-cleavage amounted to 0.
With G2C A14G C18U the figure was 0.01; with A4G A25G A39G, 0.17.
Consider G5C U9A C18A, for which the self-cleavage worked out at 0.03.
In the case of G2U A4U A12C, the self-cleavage was determined as 0.01.
In the case of G7C U9A A25G G40A, the self-cleavage stood at 0.03.
As for C10A G17C A24U G29A, the self-cleavage stood at 0.02.
With G1U C8U A14U U20C A25U U28C G36U the figure was 0.16; with G5U C15U A41G, 0.2.
With C10G C37G C42U the figure was 0.02; with G2U C15G C18A G30C G44A, 0.01.
With G1A A6C U9A G17C G40C the figure was 0.25; with C8U G17U G22A A26G G27C, 0.03; with C10U G19C A24U, 0.12.
Take A4G G17A U34A: the self-cleavage was determined as 0.09.
On to A11G G21A G22C U28C C31G G33U, for which the self-cleavage was 0.01.
The figure for A4U G17U A39U is 0.07; for A6G C10A C23A A25C it is 0.01.
With G2C A4U C8U the figure was 0.02.
With C3A U20G U32A C42U the figure was 0.1.
On to G1A A14G A16U G21U C37G G40U C45U, for which the self-cleavage amounted to 0.
As to G1C G2A C10A C42A, the self-cleavage turned out to be 0.02.
With C10A U32A A39U the figure was 0.02; with G2A A12C G27C G29U, 0.02.
In the case of C10A G21U G22C G36C, the self-cleavage came out at 0.02.
With C10U A25C A26U C37A the figure was 0.02; with C10U A14C C15U, 0.05.
The figure for G2C A24G C31U is 0.01.
The figure for C8U U20G G21U is 0.08.
In the case of C3U A14C U43C, the self-cleavage is 0.01.
The figure for G5C C18U U28G G35A is 0.04; for G5U A11C A14C A16G C46A it is 0.02.
